Laboratory results as given in ChEMBL document CHEMBL1201862, “PubChem BioAssay data set” (2004).
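Five compound concentrations were applied to cells in 96-well plates for 48 hours; endpoints were derived by simple linear interpolation of the resulting dose-response curve. At the GI50, growth is halved.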 The source made the active and inactive calls. Cut-off read from the data, not from the text of the source: active = GI50 up to about 1.1 µM and inactive = higher.

system: NCI-H322M; experiment: NCI tumour cell line growth inhibition, 48 h

| SMILES | GI50 |
| --- | --- |
| O=C(NN1C(=O)C(Cl)C1c1cccc(Cl)c1)c1ccccc1O (stereo unspecified) | inactive: > 100 µM |
| c1nc2nc[nH]c(SSc3[nH]cnc4ncnc3-4)c-2n1 | inactive: 3.1 µM |
| Nc1ccn(C2OC(COC(=O)C34CC5CC(CC(C5)C3)C4)C(O)C2O)c(=O)n1 (stereo unspecified) | inactive: 63.5 µM |
| Oc1ccc2ccccc2c1/C=C/c1ccc2c(Br)cc(Br)c(O)c2n1 | inactive: 7.96 µM |
| Cc1nnc(S(=O)(=O)c2ccc(/N=N/c3c(N)nc(N)nc3N)cc2)s1 | inactive: > 100 µM |
| CCc1nc2cc(F)ccc2[nH]c1=O | inactive: > 100 µM |
| CC(=O)Nc1sc([N+](=O)[O-])cc1S(=O)(=O)c1ccc(Cl)cc1 | inactive: 3.75 µM |
| CC(=O)/N=C1\NC(=O)/C(=C/c2ccc(Cl)cc2Cl)N1C | inactive: > 100 µM |
| CC(C)(C)c1cc2c(O)c(c1)C(c1ccccc1)c1cc(C(C)(C)C)cc(c1O)Cc1cc(C(C)(C)C)cc(c1O)C(c1ccccc1)c1cc(C(C)(C)C)cc(c1O)C2 (stereo unspecified) | inactive: > 100 µM |
| O=C1CC(Cc2n[nH]c3c2CCCC3)CC(=O)N1 | inactive: > 100 µM |
| Cc1c(OCCCOc2ccc3c(=O)cc(-c4ccccc4)oc3c2C)ccc2c(=O)cc(-c3ccccc3)oc12 | inactive: > 100 µM |
| S=C1OC2C3C4CC5C3C(O1)C1C5C4C21 (stereo unspecified) | inactive: > 100 µM |
| CCCCSC1=N/C(=C\c2ccccc2O)C(Cl)=N1 | inactive: > 100 µM |
| Cc1cc(C)c(NC(=S)NC(=O)c2ccccc2)cc1C | inactive: > 100 µM |
| NC(CCCC(N)P(=O)(O)O)P(=O)(O)O (stereo unspecified) | inactive: > 100 µM |
| COc1cccc(N2C(=O)C3CC(CC(C)(C)C)c4c([nH]c5ccccc45)C3C2=O)c1 (stereo unspecified) | inactive: > 10 µM |
| Cc1ccc(S(=O)(=O)N2CC(CCN)c3ccccc32)cc1 (stereo unspecified) | inactive: 6.15 µM |
| Clc1cc(C(c2cc(Cl)sc2Cl)c2cc(Cl)sc2Cl)c(Cl)s1 | inactive: > 100 µM |
| CC[C@@H]1OC2(C)CC(S(=O)(=O)c3ccccc3)CC1O2 (stereo partly specified) | inactive: > 100 µM |
| O=C(CCl)N1CCN(c2ccccc2)CC1 | inactive: 21.4 µM |
| CCOC(=O)CCC(NC(=O)Cc1ccc(Nc2nc3ccccc3nc2-c2ccccc2)cc1)C(=O)OCC (stereo unspecified) | inactive: > 100 µM |
| C[N+](C)(C)CC(=O)N/N=C(/CC1OC(=O)c2ccccc21)c1ccccc1O (stereo unspecified) | inactive: 27.5 µM |
| CN(C)C(=O)c1nnsc1NN=O | inactive: > 100 µM |

| SMILES | GI50 |
| --- | --- |
| C(=N\c1ccc(-c2nc3ccccc3s2)cc1)/c1cccs1 | inactive: > 100 µM |
| O=C(c1ccc(Cl)cc1)c1ccc(OCCCOc2ccc(C(=O)c3ccc(Cl)cc3)cc2)cc1 | inactive: > 100 µM |
| COc1ccc2c(=O)c([Se]c3coc4cc(OC)ccc4c3=O)coc2c1 | inactive: 35.6 µM |
| O=C1CS(=O)(=O)C(c2cccc(Oc3ccccc3)c2)N1C1CC1 (stereo unspecified) | inactive: 65.2 µM |
| CN(N)C(=O)NCCCl | inactive: > 100 µM |
| O=C1/C(=C/c2ccccc2)CCCC1CN1CCCCC1 (stereo unspecified) | inactive: 15.6 µM |
| CCCCCCCCCCCCCCCC(=O)OCC1OC(N2C(=O)/C(=N\NC(N)=S)c3ccc([N+](=O)[O-])cc32)C(OC(C)=O)C1OC(C)=O (stereo unspecified) | inactive: 91.4 µM |
| CCn1c(=O)c2ccccc2n2c(=O)c3cc4ccccc4cc3nc12 | inactive: > 100 µM |
| COCOCCCCCO[Si](C)(C)C(C)(C)C | inactive: 33 µM |
| CCOc1ccccc1NC(=O)C(=O)C(C(=O)c1ccc2ccccc2c1)C1OC(=O)c2ccccc21 (stereo unspecified) | inactive: 14.3 µM |
| Cc1nc(C(N)=S)sc1C(=O)CC(=O)C(=O)Nc1ccccc1[N+](=O)[O-] | inactive: > 100 µM |
| CCc1cccc(CC)c1Nc1nc2c(s1)C(=O)c1ccccc1C2=O | inactive: 18 µM |
| CCOC(=O)/C(C(=O)c1ccc[nH]1)=C1/CCCN1C | inactive: > 100 µM |
| COc1c(C)c2c(c(=O)c3c(C)cccc3n2C)c2c1c(=O)c1c(C)cccc1n2C | inactive: > 10 µM |
| O=C1c2ccccc2-c2c1c(-c1cccc(Br)c1)nc1ccc3ccccc3c21 | inactive: > 100 µM |
| CC(=O)/C=C1\Nc2sc(C)c(C)c2C(=O)S1 | inactive: > 100 µM |
| COC(=O)c1ncc2c(=O)[nH]c3ccccc3c2c1C(=O)OC | inactive: > 100 µM |
| CN(C(=O)C12C3C4(C(=O)O)C1(C(=O)N(C)C(C)(C)C)C1C2(C(=O)O)C3(C(=O)N(C)C(C)(C)C)C14C(=O)N(C)C(C)(C)C)C(C)(C)C (stereo unspecified) | inactive: > 100 µM |
| CC1CCCc2c1c1ccc3c(O)cccc3c1oc2=O (stereo unspecified) | inactive: 25.8 µM |
| CC(=O)NCCCCN(CCCNC(C)=O)C(=O)OCc1ccccc1 | inactive: > 100 µM |
| CCNCCCNc1c2ccccc2nc2ccccc12 | active: 0.668 µM |
| COc1cccc(C=C2N=C(C)N(n3c(-c4ccccc4)nc4ccccc4c3=O)C2=O)c1 | inactive: > 100 µM |
| CCCCCCCCCC[C@@H](O)[C@H]1CC[C@H]([C@H]2CC[C@H]([C@H](O)CCCCCCCCCC[C@@H]3CC(CC(C)=O)C(=O)O3)O2)O1 (stereo partly specified) | inactive: > 40.6 µM |

| SMILES | GI50 |
| --- | --- |
| Cc1ccc(S(=O)(=O)OC2CC=CC2)cc1 | inactive: > 100 µM |
| N=C(N)NS(=O)(=O)c1ccc(NC(=O)c2cccc3c(Nc4ccc(S(=O)(=O)N=C(N)N)cc4)c4ccc(Cl)cc4nc23)cc1 | inactive: > 100 µM |
| O=C(Nc1ccccc1)N1N=C(c2ccccc2)C1c1ccccc1 (stereo unspecified) | inactive: 44.5 µM |
| O=C(O)CSc1nnc(COc2ccc(Cl)cc2)n1-c1ccccc1 | inactive: > 100 µM |
| CCN(CC)c1ccc2cc(C(=O)Nc3ccc(C)cc3)c(=N)oc2c1 | inactive: > 100 µM |
| COC(=O)C1(C(=O)OC)C/C(C)=C(/C)SCCCS1 | inactive: > 100 µM |
| CSc1c(C(=O)Nc2ccccc2)c(N)nn1-c1ccccc1 | inactive: > 100 µM |
| Cc1ccc(/C=C2\CN(C)CC3C2=NC(=S)NC3c2ccc(C)cc2)cc1 (stereo unspecified) | inactive: > 71.6 µM |
| O=C1C2=C(c3ccccc31)C(c1ccc(Cl)cc1)N1C(=O)CCSC1=N2 (stereo unspecified) | inactive: > 100 µM |
| C=CCn1c(N)c(C#N)c(C#N)c1CCC | inactive: > 100 µM |
| CC1CN1C(=O)NCCCCCCNC(=O)N1CC1C (stereo unspecified) | inactive: > 100 µM |
| Cc1c2ccncc2c(C)c2c1sc1ccccc12 | inactive: 14.5 µM |
| CN(C)CCNC(=O)c1cccc2ccc(-c3ccncc3)nc12 | inactive: 4 µM |
| c1ccc(SC(CCCCC(Sc2ccccc2)Sc2ccccc2)Sc2ccccc2)cc1 | inactive: > 100 µM |
| COC(=O)c1cc(C)ccc1/C=C1\Cc2cc(C)c(C)cc2C1=O | inactive: > 100 µM |
| CSc1nc(NC2OCC(OC(C)=O)C(OC(C)=O)C2OC(C)=O)c2c(OC(C)=O)c(C)c(=O)oc2n1 (stereo unspecified) | inactive: > 100 µM |
| O=C(N/C(=C\c1ccccc1)C1Nc2ccccc2C(=O)O1)c1ccccc1 (stereo unspecified) | inactive: > 100 µM |
| CC(C)n1c(=O)c2nn3c(=O)n(C(C)C)c(=O)c3nn2c1=O | inactive: > 100 µM |
| C=CC(CCc1ccc(C(=O)OCC)cc1)c1c(N)nc(N)[nH]c1=O (stereo unspecified) | inactive: 75.2 µM |
| C1CCCCC2(CCCCCCCCC3(CCC1)OCCO3)OCCO2 | inactive: > 100 µM |
| COC(=O)[C@@H]1C=C[C@H](NC(C)=O)C1 | inactive: > 100 µM |
| COc1ccc(/N=N/c2c(C)c(C#N)c(=S)n(C3OC(CO)C(O)C(O)C3O)c2-c2ccccc2)cc1 (stereo unspecified) | inactive: 42.5 µM |
| Nc1nc(N)c2ncn(-c3ccc(Cl)cc3)c2n1 | inactive: 57.3 µM |

| SMILES | GI50 |
| --- | --- |
| Cc1ccnc2[nH]c3ccccc3c(=O)c12 | inactive: 40.3 µM |
| CC(=O)OCCOCNC(=S)N/N=C/c1cc([N+](=O)[O-])ccc1O | inactive: 58.6 µM |
| Nc1ccc(Nc2nc(F)nc(-c3c4ccccc4c4n3CCS4)n2)cc1 | inactive: 32.1 µM |
| NS(=O)(=O)c1cc2c(cc1Cl)N=C(CCC(=O)O)NS2(=O)=O | inactive: > 100 µM |
| CC[C@]1(Cc2ccc(OC)c(OC)c2)C=[N+]([O-])O[C@H](OC2CCCC2(c2ccccc2)c2ccccc2)[C@@H]1OC(=O)c1ccccc1 (stereo partly specified) | inactive: 11.1 µM |
| C=CCOC1=C(OC(C)=O)C(C2COC(C)(C)O2)OC1=O (stereo unspecified) | inactive: 66.2 µM |
| CN(C)c1cccc(NC2=NCCO2)c1 | inactive: 56.9 µM |
| O=C1/C(=C/c2cccc(Br)c2)CSC/C1=C\c1cccc(Br)c1 | inactive: 9.51 µM |
| N#Cc1c(-c2ccc([N+](=O)[O-])cc2)c(C#N)c(=O)n(NS(=O)(=O)c2ccccc2)c1S | inactive: 71.4 µM |
| CC1(C)CC2=C(SC3C=CC=CC3N2)C(=O)C1C(=O)C(N)=O (stereo unspecified) | inactive: > 100 µM |
| CNC(=O)OCc1c(COC(=O)NC)c(-c2ccc(Cl)c(Cl)c2)n2c1SCC2 | inactive: 9.2 µM |
| NCC(=O)NC(CO)C(=O)O (stereo unspecified) | inactive: > 100 µM |
| CC(O)C(O)C(N)CC=O (stereo unspecified) | inactive: > 500 µM |
| C/C=C/C(C#N)(/C=C/c1ccccc1)OP1(=O)OC(c2ccccc2)C(C)N1C (stereo unspecified) | inactive: 18.6 µM |
| O=S(=O)(O)c1cc(/N=[N+](\[O-])c2ccc(/N=N/c3ccccc3)cc2S(=O)(=O)O)ccc1/C=C/c1ccc(/N=[N+](\[O-])c2ccc(/N=N/c3ccccc3)cc2S(=O)(=O)O)cc1S(=O)(=O)O | inactive: > 100 µM |
| Cc1ccc2nc(-c3ccc(NC(=O)c4ccc(N)cc4)c(S(=O)(=O)O)c3)sc2c1 | inactive: > 100 µM |
| CC(=O)OCC1OC(OC2CC3C(C)(C)C(OC(C)=O)CC[C@]3(C)C3CCC45CC4(CC[C@H]5C(C)CC(O)C4OC4(C)C)[C@]23C)C(O)C(O)C1O (stereo partly specified) | active: 0.906 µM |
| CC(C)NC1CCCCC2c3cc(F)ccc3[C@]12O (stereo partly specified) | inactive: > 100 µM |
| CC[C@]1(O)C[C@H]2CN(CCc3c([nH]c4ccccc34)[C@@](C(=O)OC)(c3cc4c(cc3OC)N(C)[C@H]3[C@@](O)(C(=O)OC)[C@H](OC(C)=O)[C@]5(CC)C=CCN6CC[C@]43[C@@H]65)C2)C1 | active: 0.00104 µM |
| C=Cc1c(C)c(O)cc2c1-c1ccc(O)c(C)c1CC2 | inactive: 15.9 µM |
| Nc1nc(O)c(Br)c(-c2cccc([N+](=O)[O-])c2)n1 | inactive: > 100 µM |
| O=C1C2C3C=CC(C2C(=O)N1CN1CCSCC1)C1C2C(=O)N(CN4CCSCC4)C(=O)C2C31 (stereo unspecified) | inactive: > 100 µM |
